# Measured values as given in the supplement of paper PMC8728848.
# The list shows a part of the results.
# B1: SefD (Salmonella enterica), Q9L6K6 (protein)
# chain: GAYIIRGQNNSAHKLRIRIGGEDWQPDNSGIGMVSHSDFTNEFNIYYFGNGDIPVDTYLISIYATEIEL
# How the values were obtained:
# Assay in all cases: glycan array binding signal (z-score within array); higher = stronger binding
# Conditions in all cases: glycan notation: IUPAC condensed, linker removed
# [1] = target: Fuc(a1-2)Gal
# In short: (§1)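 Glycan array data were curated from 3228 arrays in the Consortium for Functional Glycomics database and kept only where the protein sequence was available. Glycan names were converted to IUPAC-condensed notation, and columns mapping to the same glycan were averaged. The binding signal is a within-array Z-score, averaged across arrays of the same protein sequence at different concentrations or buffers and across linkers. Negative Z-scores can be read as non-binding.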
# [2] = target: Fuc(a1-2)Gal(b1-3)GalNAc
# In short: as §1
# [3] = target: Fuc(a1-2)Gal(b1-3)GalNAc(a1-3)[Fuc(a1-2)]Gal(b1-4)Glc
# In short: as §1
# [4] = target: Fuc(a1-2)Gal(b1-3)GalNAc(a1-3)[Fuc(a1-2)]Gal(b1-4)GlcNAc
# In short: as §1
# [5] = target: Fuc(a1-2)Gal(b1-3)GalNAc(b1-3)Gal
# In short: as §1
# [6] = target: Fuc(a1-2)Gal(b1-3)GalNAc(b1-3)Gal(a1-4)Gal(b1-4)Glc
# In short: as §1
# [7] = target: Fuc(a1-2)Gal(b1-3)GalNAc(b1-4)[Neu5Ac(a2-3)]Gal(b1-4)Glc
# In short: as §1
# [8] = target: Fuc(a1-2)Gal(b1-3)GlcNAc
# In short: as §1
# [9] = target: Fuc(a1-2)Gal(b1-3)GlcNAc(b1-2)Man(a1-3)[Fuc(a1-2)Gal(b1-3)GlcNAc(b1-2)Man(a1-6)]Man(b1-4)GlcNAc(b1-4)GlcNAc
# In short: as §1
# [10] = target: Fuc(a1-2)Gal(b1-3)GlcNAc(b1-2)Man(a1-3)[Fuc(a1-2)Gal(b1-3)GlcNAc(b1-2)Man(a1-6)]Man(b1-4)GlcNAc(b1-4)[Fuc(a1-6)]GlcNAc
# In short: as §1
# [11] = target: Fuc(a1-2)Gal(b1-3)GlcNAc(b1-3)Gal(b1-4)Glc
# In short: as §1
# [12] = target: Fuc(a1-2)Gal(b1-3)GlcNAc(b1-3)GalNAc
# In short: as §1
# [13] = target: Fuc(a1-2)Gal(b1-3)GlcNAc(b1-3)[Fuc(a1-3)[Gal(b1-4)]GlcNAc(b1-6)]Gal(b1-4)Glc
# In short: as §1
# [14] = target: Fuc(a1-2)Gal(b1-3)GlcNAc(b1-3)[Gal(b1-4)GlcNAc(b1-6)]Gal(b1-4)Glc
# In short: as §1
# [15] = target: Fuc(a1-2)Gal(b1-3)GlcNAc(b1-3)[Neu5Ac(a2-6)Gal(b1-4)GlcNAc(b1-6)]Gal(b1-4)Glc
# In short: as §1
# [16] = target: Fuc(a1-2)Gal(b1-3)[Fuc(a1-4)]GlcNAc
# In short: as §1
# [17] = target: Fuc(a1-2)Gal(b1-3)[Fuc(a1-4)]GlcNAc(b1-2)Man(a1-3)[Fuc(a1-2)Gal(b1-3)[Fuc(a1-4)]GlcNAc(b1-2)Man(a1-6)]Man(b1-4)GlcNAc(b1-4)GlcNAc
# In short: as §1
# [18] = target: Fuc(a1-2)Gal(b1-3)[Fuc(a1-4)]GlcNAc(b1-3)[Fuc(a1-3)[Gal(b1-4)]GlcNAc(b1-6)]Gal(b1-4)Glc
# In short: as §1
# [19] = target: Fuc(a1-2)Gal(b1-3)[Fuc(a1-4)]GlcNAc(b1-3)[Gal(b1-4)GlcNAc(b1-6)]Gal(b1-4)Glc
# In short: as §1
# [20] = target: Fuc(a1-2)Gal(b1-4)Glc
# In short: as §1
# [21] = target: Fuc(a1-2)Gal(b1-4)Glc6S
# In short: as §1
# [22] = target: Fuc(a1-2)Gal(b1-4)GlcNAc
# In short: as §1
# [23] = target: Fuc(a1-2)Gal(b1-4)GlcNAc(b1-2)Man(a1-3)[Fuc(a1-2)Gal(b1-4)GlcNAc(b1-2)Man(a1-6)]Man(b1-4)GlcNAc(b1-4)GlcNAc
# In short: as §1
# [24] = target: Fuc(a1-2)Gal(b1-4)GlcNAc(b1-2)Man(a1-3)[Fuc(a1-2)Gal(b1-4)GlcNAc(b1-2)Man(a1-6)]Man(b1-4)GlcNAc(b1-4)[Fuc(a1-6)]GlcNAc
# In short: as §1
# [25] = target: Fuc(a1-2)Gal(b1-4)GlcNAc(b1-2)[Fuc(a1-2)Gal(b1-4)GlcNAc(b1-4)]Man(a1-3)[Fuc(a1-2)Gal(b1-4)GlcNAc(b1-2)Man(a1-6)]Man(b1-4)GlcNAc(b1-4)GlcNAc
# In short: as §1
# [26] = target: Fuc(a1-2)Gal(b1-4)GlcNAc(b1-3)Gal(b1-4)GlcNAc
# In short: as §1
# [27] = target: Fuc(a1-2)Gal(b1-4)GlcNAc(b1-3)Gal(b1-4)GlcNAc(b1-3)Gal(b1-4)GlcNAc
# In short: as §1
# [28] = target: Fuc(a1-2)Gal(b1-4)GlcNAc(b1-3)GalNAc
# In short: as §1
# [29] = target: Fuc(a1-2)Gal(b1-4)GlcNAc(b1-3)[Fuc(a1-2)Gal(b1-4)GlcNAc(b1-6)]GalNAc
# In short: as §1
# [30] = target: Fuc(a1-2)Gal(b1-4)GlcNAc6S
# In short: as §1
# [31] = target: Fuc(a1-2)Gal(b1-4)[Fuc(a1-3)]GlcNAc
# In short: as §1
# [32] = target: Fuc(a1-2)Gal(b1-4)[Fuc(a1-3)]GlcNAc(b1-2)Man(a1-3)[Fuc(a1-2)Gal(b1-4)[Fuc(a1-3)]GlcNAc(b1-2)Man(a1-6)]Man(b1-4)GlcNAc(b1-4)GlcNAc
# In short: as §1
# [33] = target: Fuc(a1-2)Gal(b1-4)[Fuc(a1-3)]GlcNAc(b1-2)[Fuc(a1-2)Gal(b1-4)[Fuc(a1-3)]GlcNAc(b1-4)]Man(a1-3)[Fuc(a1-2)Gal(b1-4)[Fuc(a1-3)]GlcNAc(b1-2)Man(a1-6)]Man(b1-4)GlcNAc(b1-4)GlcNAc
# In short: as §1
# [34] = target: Fuc(a1-2)Gal(b1-4)[Fuc(a1-3)]GlcNAc(b1-3)Gal(b1-4)[Fuc(a1-3)]GlcNAc
# In short: as §1
# [35] = target: Fuc(a1-2)Gal(b1-4)[Fuc(a1-3)]GlcNAc(b1-3)Gal(b1-4)[Fuc(a1-3)]GlcNAc(b1-3)Gal(b1-4)[Fuc(a1-3)]GlcNAc
# In short: as §1
# [36] = target: Fuc(a1-2)Gal(b1-4)[Fuc(a1-3)]GlcNAc(b1-3)GalNAc
# In short: as §1
# [37] = target: Fuc(a1-2)Gal6S(b1-4)Glc
# In short: as §1
# [38] = target: Fuc(a1-2)Gal6S(b1-4)Glc6S
# In short: as §1
# [39] = target: Fuc(a1-2)Gal6S(b1-4)GlcNAc
# In short: as §1
# [40] = target: Fuc(a1-2)[Gal(a1-3)]Gal
# In short: as §1
# [41] = target: Fuc(a1-2)[Gal(a1-3)]Gal(b1-3)GalNAc
# In short: as §1
# [42] = target: Fuc(a1-2)[Gal(a1-3)]Gal(b1-3)GlcNAc
# In short: as §1
# [43] = target: Fuc(a1-2)[Gal(a1-3)]Gal(b1-3)GlcNAc(b1-2)Man(a1-3)[Fuc(a1-2)[Gal(a1-3)]Gal(b1-3)GlcNAc(b1-2)Man(a1-6)]Man(b1-4)GlcNAc(b1-4)GlcNAc
# In short: as §1
# [44] = target: Fuc(a1-2)[Gal(a1-3)]Gal(b1-3)GlcNAc(b1-2)Man(a1-3)[Fuc(a1-2)[Gal(a1-3)]Gal(b1-3)GlcNAc(b1-2)Man(a1-6)]Man(b1-4)GlcNAc(b1-4)[Fuc(a1-6)]GlcNAc
# In short: as §1
# [45] = target: Fuc(a1-2)[Gal(a1-3)]Gal(b1-3)GlcNAc(b1-3)GalNAc
# In short: as §1
binder,measurement,setting,value
B1,glycan array binding signal (z-score),[1],0.146
same,glycan array binding signal (z-score),[2],-0.293
same,glycan array binding signal (z-score),[3],-0.357
same,glycan array binding signal (z-score),[4],-0.464
same,glycan array binding signal (z-score),[5],-0.267
same,glycan array binding signal (z-score),[6],0.329
same,glycan array binding signal (z-score),[7],-0.236
same,glycan array binding signal (z-score),[8],-0.291
same,glycan array binding signal (z-score),[9],-0.486
same,glycan array binding signal (z-score),[10],0.025
same,glycan array binding signal (z-score),[11],-0.094
same,glycan array binding signal (z-score),[12],-0.491
same,glycan array binding signal (z-score),[13],-0.271
same,glycan array binding signal (z-score),[14],-0.595
same,glycan array binding signal (z-score),[15],-0.16
same,glycan array binding signal (z-score),[16],-0.37
same,glycan array binding signal (z-score),[17],-0.362
same,glycan array binding signal (z-score),[18],0.119
same,glycan array binding signal (z-score),[19],5.83
same,glycan array binding signal (z-score),[20],-0.593
same,glycan array binding signal (z-score),[21],-0.26
same,glycan array binding signal (z-score),[22],0.74
same,glycan array binding signal (z-score),[23],0.118
same,glycan array binding signal (z-score),[24],-0.414
same,glycan array binding signal (z-score),[25],-0.171
same,glycan array binding signal (z-score),[26],-0.349
same,glycan array binding signal (z-score),[27],-0.043
same,glycan array binding signal (z-score),[28],-0.352
same,glycan array binding signal (z-score),[29],-0.26
same,glycan array binding signal (z-score),[30],-0.184
same,glycan array binding signal (z-score),[31],-0.523
same,glycan array binding signal (z-score),[32],0.361
same,glycan array binding signal (z-score),[33],-0.253
same,glycan array binding signal (z-score),[34],-0.137
same,glycan array binding signal (z-score),[35],-0.353
same,glycan array binding signal (z-score),[36],-0.2
same,glycan array binding signal (z-score),[37],0.242
same,glycan array binding signal (z-score),[38],0.837
same,glycan array binding signal (z-score),[39],-0.327
same,glycan array binding signal (z-score),[40],-0.178
same,glycan array binding signal (z-score),[41],-0.186
same,glycan array binding signal (z-score),[42],-0.17
same,glycan array binding signal (z-score),[43],-0.422
same,glycan array binding signal (z-score),[44],-0.12
same,glycan array binding signal (z-score),[45],-0.433
